Reference: PubChem BioAssay AID540317 (National Center for Advancing Translational Sciences (NCATS), 2011)
Several values for one entry are separate records, joined by “and”; a condition that tells them apart may be missing. Equal values may be shown once. Out of some 390,000 compounds screened, about 2,200 (0.56%) were called active. The shares of active, inactive and inconclusive entries below differ from those in the screen. Calls come from the whole dose curve; as a rule, active = well fitted inhibition curve with a large enough effect; inconclusive = small, poorly fitted or top-dose-only effect; inactive = no such curve, though single readings can be large or run the other way. Potencies of inconclusive entries are doubtful fits and often do not repeat.

biological target: Chromobox protein homolog 1 (Homo sapiens) (UniProt P83916); experiment: HTS for Inhibitors of HP1-beta Chromodomain Interactions with Methylated Histone Tails; conditions: AlphaScreen HP1-beta / biotin-H3K9me3 peptide binding; series mostly up to 114 µM; note: nearly all actives have a fitted effect of over 70% in size
Sequence of UniProt P83916 (P83916 whole entry, looked up): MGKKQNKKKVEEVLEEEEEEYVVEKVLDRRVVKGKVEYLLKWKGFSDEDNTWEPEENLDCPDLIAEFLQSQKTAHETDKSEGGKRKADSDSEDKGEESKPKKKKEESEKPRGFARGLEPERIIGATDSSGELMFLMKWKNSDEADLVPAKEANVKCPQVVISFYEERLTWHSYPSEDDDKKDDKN
Outline: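 AlphaScreen: HP1-beta (50 nM) preformed 30 min with biotin-H3(1-18)K9me3 peptide (50 nM) in PBS pH 7.4, 0.01% Tween-20. Compound added for 30 min at RT, then streptavidin donor/nickel chelate acceptor beads (10 ug/mL) for 30 min.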
Potency is the fitted concentration of half-maximal effect; tags give direction and shape of the fitted curve.

Row | Compound | Potency
1 | CC(C)CC(=O)N1CCN(Cc2ccc(Br)cc2)CC1 | inconclusive: 39.8 µM [inhibitor, partial curve]
2 | CCCNC(=S)N1CCC(NC(=O)C2CCCCC2)CC1 | inconclusive: 39.8 µM [inhibitor, single point]
3 | COc1ccc2c(c1)CCCC(Br)C2=O (configuration not stated) | inconclusive: 89.1 µM [inhibitor, single point]
4 | C/C(=N/N1CCN(c2ccccc2)CC1)c1cccc([N+](=O)[O-])c1 | inconclusive: 39.8 µM [inhibitor, partial curve]
5 | COc1ccc(NC(=O)CCc2nc3cccnc3n2-c2ccccc2)c(OC)c1 | inactive
6 | S=C(NCc1ccc2c(c1)OCO2)Nc1ccc(-c2nc3ccccc3[nH]2)cc1 | inconclusive: 35.5 µM [inhibitor, partial curve, poor fit]
7 | C#CCSc1nccc(-c2nn(-c3ccc(C)cc3)ccc2=O)n1 | inconclusive: 79.4 µM [inhibitor, partial curve, poor fit]
8 | O=C(NC(=S)Nc1ccc(N2CCCCC2)cc1)c1ccc2c(c1)OCCO2 | inconclusive: 14.1 µM [inhibitor, full curve]
9 | CSC1CCCCC1(O)CSc1nc2c(cc1C#N)CCCC2 (configuration not stated) | inconclusive: 79.4 µM [inhibitor, single point]
10 | COc1ccc(NC(=O)COC(=O)c2cc(SC)ccc2Cl)c(OC)c1 | inactive
11 | Cc1c(C(=O)N2CCC(C)CC2)c(S(=O)(=O)Nc2cccc(C#N)c2)c(C)n1C | inactive
12 | Cc1ccc(C)c(N/C(N)=N/c2nc(C)cc(C)n2)c1 | inactive
13 | COc1cc(/C=C2\SC(=O)N(c3ccccc3Cl)C2=O)cc([N+](=O)[O-])c1O | inconclusive: 8.91 µM [inhibitor, full curve, poor fit]
14 | CC(C)c1cccc(C(C)C)c1NC(=O)CNCc1ccccc1F | inconclusive: 14.1 µM [inhibitor, partial curve, poor fit]
15 | COc1ccc([N+](=O)[O-])cc1-n1cccc1 | inconclusive: 17.8 µM [inhibitor, partial curve, poor fit]
16 | Cc1c(C)n(CCc2ccccc2)c2ncnc(NCCCN(C)C)c12 | inconclusive: 50.1 µM [inhibitor, partial curve, poor fit]
17 | C=CCN(C(=O)CSc1nc2ccsc2c(=O)n1Cc1ccccn1)c1ccccc1 | inconclusive: 89.1 µM [inhibitor, single point]
18 | Cc1cc(C)c(NC(=O)C2CCN(C(=O)N3CC(C)Oc4ccc(Cl)cc43)CC2)c(C)c1 (configuration not stated) | inconclusive: 31.6 µM [inhibitor, partial curve]
19 | Cc1ccc(OCCN2C(=O)C(=O)c3cc(C)ccc32)cc1 | inconclusive: 20 µM [inhibitor, full curve]
20 | CCN(CC)S(=O)(=O)c1ccc(N2CCOCC2)c(NC(=O)C(=O)c2c(-c3ccccc3)cc3ccccn23)c1 | inactive
21 | Cc1c(C(=O)N(C)C)sc2c1c(=O)n(-c1ccccc1C(F)(F)F)c(=O)n2Cc1ccccc1C#N | inactive
22 | OCCN(Cc1ccccc1)Cc1ccccc1F | active: 44.7 µM
23 | Cn1cccc1/C=N/NC(=O)CNc1cccc2ccccc12 | inconclusive: 39.8 µM [inhibitor, partial curve]

Row | Compound | Potency
24 | Cc1cc(C)c(C#N)c(SCC(=O)Nc2ccc(S(=O)(=O)Nc3ncccn3)cc2)n1 | inconclusive: 89.1 µM [inhibitor, single point]
25 | CCOC(=O)C1CCN(c2c([N+](=O)[O-])c(C(Cl)Cl)nn2-c2ccccc2)CC1 | inconclusive: 22.4 µM [inhibitor, partial curve, poor fit]
26 | CCN(Cc1ccccc1)c1ccc(/C=N/NS(=O)(=O)c2ccc(C)c([N+](=O)[O-])c2)cc1 | inconclusive: 39.8 µM [inhibitor, single point]
27 | COC(=O)CC1=NN(c2ccc(OC)cc2)C(=O)/C1=C\c1ccc(Cl)cc1 | inconclusive: 70.8 µM [inhibitor, partial curve]
28 | CC1=CC(c2ccccc2)n2nc(N3C(=O)CCC3=O)nc2N1 (configuration not stated) | inactive
29 | CCN(CC)c1ccc(NC(=O)CN2C(=O)NC3(CCc4ccccc43)C2=O)cc1 (configuration not stated) | inconclusive: 50.1 µM [inhibitor, partial curve]
30 | CCOc1cc(C=NN2CCCCCC2)ccc1O | inconclusive: 50.1 µM [inhibitor, partial curve, poor fit]
31 | COCCN=c1scc(-c2cc(OC)ccc2OC)n1/N=C/c1c[nH]c2ccccc12 | inconclusive: 20 µM [inhibitor, full curve, poor fit]
32 | Cc1csc(=Nc2ccc(S(=O)(=O)N3CCOCC3)cc2)n1Cc1ccco1 | inactive and inconclusive: 35.5 µM [inhibitor, partial curve]
33 | N#C/C(=C/c1cccn1-c1cccc(C(=O)O)c1)c1ccc(Cl)cc1 | inconclusive: 44.7 µM [inhibitor, partial curve]
34 | Cc1ccc(-c2cc(N)n(Cc3ccc(Cl)cc3)n2)cc1 | inconclusive: 44.7 µM [inhibitor, partial curve]
35 | O=C(N/N=C/c1ccc(O)c(O)c1)c1cccc(S(=O)(=O)N2CCCCC2)c1 | inactive
36 | CN(C)c1ccc(NC(=O)c2cccc(C(=O)Nc3ccc(N(C)C)cc3)n2)cc1 | active: 39.8 µM
37 | COc1ccc(CNc2oc(COc3ccccc3)nc2C#N)cc1 | inconclusive: 50.1 µM [inhibitor, partial curve]
38 | Cc1ccc2nc(N(CCCN(C)C)C(=O)c3ccc(S(=O)(=O)N4CCOCC4)cc3)sc2c1 | inactive
39 | CCOc1ccc(OCCNC(=O)c2cc(C3CC3)nc3c2cnn3C(C)C)cc1 | inactive
40 | Cc1nn(CC(=O)c2cccc(Cl)c2)c(C)c1[N+](=O)[O-] | inactive
41 | O=C(Oc1ccc(N(Cc2cccs2)C2=NS(=O)(=O)c3ccccc32)cc1)c1ccccc1Cl | inconclusive: 3.55 µM [inhibitor, single point]
42 | COc1cc(CN(CC2CCCO2)C(=O)c2cccs2)cc(OC)c1OC (configuration not stated) | inactive
43 | COc1cccc(C(=O)NCC(c2ccc(N(C)C)cc2)N2CCc3ccccc32)c1OC (configuration not stated) | inconclusive: 17.8 µM [inhibitor, full curve]
44 | COc1cc(CN2CCC(Cc3ccccc3)CC2)cc([N+](=O)[O-])c1O | inconclusive: 25.1 µM [inhibitor, single point]
45 | CNc1nc(NC#N)nc(SC)n1 | inactive
46 | CCN1CCc2c(sc(NC(=O)Cc3ccccc3)c2C(N)=O)C1 | inactive

Row | Compound | Potency
47 | C=CCc1ccc(OCCCCN2CC(C)CC(C)C2)c(OC)c1 (configuration not stated) | inconclusive: 44.7 µM [inhibitor, partial curve]
48 | COc1cccc(C(=O)Nc2nc(-c3ccccc3)c(-c3ccccc3)o2)c1 | inconclusive: 31.6 µM [inhibitor, full curve]
49 | COc1ccc(/C=C2\SC(N3CCc4ccccc4C3)=NC2=O)cc1OC | inconclusive: 3.16 µM [inhibitor, partial curve, poor fit]
50 | O=C(c1sc2cc([N+](=O)[O-])ccc2c1Cl)N1CCCCC1 | inconclusive: 70.8 µM [inhibitor, partial curve]
51 | Cc1ccc(OCc2ccc(-c3nc(C#N)c(N4CCN(c5cccc(Cl)c5)CC4)o3)o2)cc1 | inactive
52 | Cc1ccc(-c2nc(=N)sn2Cc2ccccc2)cc1 | inconclusive: 10 µM [inhibitor, partial curve, poor fit]
53 | CN(CCC#N)C(=O)COC(=O)c1c2c(nc3ccccc13)/C(=C\c1ccco1)CC2 | inconclusive: 44.7 µM [inhibitor, partial curve]
54 | Cc1cccc(CN2CCN(c3ccccn3)CC2)c1 | inconclusive: 79.4 µM [inhibitor, single point]
55 | O=C1C=CC2=C3c4cc(O)c(O)cc4CC3(O)COC2=C1O (configuration not stated) | inconclusive: 3.16 µM [inhibitor, full curve, poor fit]
56 | C[C@@H](C(=O)Nc1nc2ccccc2s1)N1C(=O)C2CC=CCC2C1=O (some centres not stated) | inactive
57 | O=C(CN(c1ccccc1)S(=O)(=O)c1ccccc1)Nc1ccccc1C(=O)NCc1ccco1 | inconclusive: 28.2 µM [inhibitor, single point]
58 | Cc1nn(CCC(=O)N2CCN(c3ccccc3F)CC2)c(C)c1S(=O)(=O)N1CCCC1 | inactive
59 | CCNC(=S)Nc1ccc(N2CCCCC2)cc1 | inconclusive: 39.8 µM [inhibitor, partial curve]
60 | CCCC(=O)Nc1ccc(C(=O)NNC(=S)NC(=O)c2ccc(Br)o2)cc1 | inconclusive: 39.8 µM [inhibitor, full curve]
61 | O=C(NCCCNC(=O)c1cccs1)c1cccs1 | inconclusive: 7.08 µM [inhibitor, single point]
62 | CCc1ccc(OCc2nnc(SCCN3CCOCC3)n2CC)cc1 | inconclusive: 22.4 µM [inhibitor, full curve, poor fit]
63 | CN1CCN(c2ccccc2NC(=O)c2ccc(N3CCCCC3)c([N+](=O)[O-])c2)CC1 | inconclusive: 35.5 µM [inhibitor, partial curve, poor fit]
64 | O=[N+]([O-])c1ccc(Nc2ccccc2O)c2nonc12 | inconclusive: 25.1 µM [inhibitor, full curve]
65 | CCOc1cc(C2C(C#N)=C(N)Oc3n[nH]c(-c4ccncc4)c32)cc([N+](=O)[O-])c1O (configuration not stated) | inactive
66 | CC1CN(Cc2ccccc2Cl)CC(C)O1 (configuration not stated) | inconclusive: 15.8 µM [inhibitor, full curve]
67 | Cc1ccc(C)c(N2CCN(C(=O)Cc3cn(C)c4ccccc34)CC2)c1 | inconclusive: 22.4 µM [inhibitor, partial curve, poor fit]
